# Measurements reported in PubChem BioAssay AID686978 (National Center for Advancing Translational Sciences (NCATS), 2013).
# Values joined by “and” are separate entries in the source; they are usually repeats but may differ in a detail not shown here. Equal values may be shown once. The whole screen tested about 420,000 compounds, of which about 64,000 (15%) were called active. The shares of active, inactive and inconclusive entries below differ from those in the screen. Calls come from the whole dose curve; as a rule, active = well fitted inhibition curve with a large enough effect; inconclusive = small, poorly fitted or top-dose-only effect; inactive = flat fitted curve, though single readings scatter. Potencies of inconclusive entries are doubtful fits and often do not repeat.
# Assay: qHTS for Inhibitors of human tyrosyl-DNA phosphodiesterase 1 (TDP1): qHTS in cells in absence of CPT; note: nearly all actives have a fitted effect of over 55% in size
# Details: DT40 Tdp1-/- hTDP1 cells, no CPT, ATP luminescence, 48 h; activity change, negative = growth inhibition: at 46.2 µM (top of the series) unless noted
# Procedure, shortened: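 A cellular qHTS used chicken DT40 cells lacking endogenous Tdp1 but carrying stably transfected human TDP1. Compounds were applied without camptothecin, and cell growth kinetics were judged by ATP-dependent luminescence after ≥48 hr.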
# % is set by controls: 0 for no effect and ±100 for the full control effect; potency is the fitted concentration of half-maximal effect; tags give direction and shape of the fitted curve.
SMILES,Potency,"activity change, negative = growth inhibition"
CCOc1ccc(N2CC(NC(=O)c3ccc4ccccc4c3)CC2=O)cc1 (stereo not given),"inconclusive: 25.9 µM [inhibitor, single point]",–
COc1cccc(C(=O)Nc2ccc(Cl)c(-c3nc4ccccc4[nH]3)c2)c1,active: 6.51 µM,–
COc1ccc2c(c1)CC(NC(=O)Nc1cc(Cl)ccc1OC)CO2 (stereo not given),"inconclusive: 29.1 µM [inhibitor, single point]",–
COC(=O)c1n[nH]c2ccccc12,–,inactive: -3.63%
COC(=O)C1=CNC=C(C(=O)OC)C1c1ccc(C(=O)OC)cc1,–,inactive: -9.48%
CCCCCOc1ccc(Cn2ccnc2)cc1[N+](=O)[O-],"inconclusive: 18.4 µM [inhibitor, single point]",–
CC(C)(C)OC(=O)N1CCC(NC(=O)c2[nH]cnc2C(=O)Nc2cccc(Cl)c2)CC1,"inconclusive: 20.6 µM [inhibitor, single point]",–
O=C(O)CNc1nc(-c2ccccc2)nc2ccccc12,–,inactive: -15%
CC(=O)c1ccc(N2CCN(S(=O)(=O)c3ccc4c(c3)CC(C)N4C(=O)C3CCC3)CC2)cc1 (stereo not given),active: 5.8 µM,–
CC1CCN(CC(=O)Nc2ccccc2-c2ccccc2)CC1,"inconclusive: 25.9 µM [inhibitor, single point]",–
CC(C)C[C@@H](CSc1ccc(Br)cc1)N1CCN(CC(C)C)CCC1=O,active: 16.4 µM,–
CN(CC(=O)Nc1ccccc1Br)C(=O)CCCSc1nc2ccccc2[nH]1,–,inactive: -22.2%
COc1cc(NC(=O)c2cc(-c3cccnc3)nc3ccc(Br)cc23)cc(OC)c1,active: 20.6 µM,–
COc1ccc(S(=O)(=O)N2c3ccccc3NC(=O)CC2C)cc1 (stereo not given),–,inactive: 3.76%
Cc1ccc(-c2nn3c(C)nnc3c3ccccc23)cc1S(=O)(=O)N1CCN(CCO)CC1,"inconclusive: 20.6 µM [inhibitor, single point]",–
Cc1sc(-n2cccc2)c(C(=O)O)c1C,–,inactive: -0.0117%
O=C1C2CC=CCC2C(=O)N1c1ccc(N2CCN(c3ccccn3)CC2)c([N+](=O)[O-])c1 (stereo not given),active: 16.4 µM,–
CN(Cc1cnccn1)Cc1ccccc1OCC(O)CN1CCc2ccccc2C1 (stereo not given),"inconclusive: 18.4 µM [inhibitor, partial curve]",–
CCC(=O)Nc1ccc(NC(=S)NC(=O)Cc2ccccc2)cc1,–,inactive: -5.21%
O=C(Nc1ccccc1)N1CC[C@@]2(CCCN(C(=O)c3cnccn3)C2)C1,–,inactive: -3.68%
O=C(/C=C/c1ccc(S(=O)(=O)N2CCOCC2)cc1)NCCc1ccc(C(F)(F)F)cc1,"inconclusive: 10.3 µM [inhibitor, partial curve]",–
CCCN(CCC)C(=O)CSc1nc2ccsc2c(=O)n1NC(=O)c1ccccc1,"inconclusive: 29.1 µM [inhibitor, single point]",–
CCn1c(SCc2nc3ccccc3s2)nnc1-c1cccs1,"inconclusive: 20.6 µM [inhibitor, single point]",–
CCN1CCN(c2ccc(NC(=O)COc3ccccc3Cl)cc2)CC1,active: 18.4 µM,–

SMILES,Potency,"activity change, negative = growth inhibition"
NC(=O)c1nsc(C(=O)N(Cc2ccco2)C(C(=O)NCC2CCCO2)c2ccc(F)cc2)c1N (stereo not given),"inconclusive: 23.1 µM [inhibitor, partial curve]",–
c1ccc(Oc2nnc(-c3cccs3)c3ccccc23)cc1,–,inconclusive: -35.5% [inhibitor]
CCN1CCC2(CC1)N=C(c1ccc(F)cc1)C(=S)N2,–,inactive: -2.46%
Cc1ccc(S(=O)(=O)c2cn(C)c3cc(N4CCCCCC4)c(F)cc3c2=O)cc1,active: 16.4 µM,–
CCc1ccc(Nc2n[n+](-c3ccccc3)c(-c3cccc(Cl)c3Cl)s2)cc1,active: 16.4 µM,–
CC(=O)C1=C(C)NC(SCC(=O)c2ccc(Cl)cc2Cl)=C(C#N)C1c1ccco1 (stereo not given),"inconclusive: 18.4 µM [inhibitor, single point]",–
CC(C(=O)N1CCc2ccccc21)N1CCc2ccccc2C1 (stereo not given),"inconclusive: 20.6 µM [inhibitor, single point]",–
OC(COc1ccc2cc(Br)ccc2c1)Cn1ccnc1 (stereo not given),"inconclusive: 16.4 µM [inhibitor, single point]",–
CCCCN1CC[C@H]2C=CC[C@@H](C(=O)N3CCN(c4ccccc4)CC3)[C@H]2C1=O,"inconclusive: 35.5 µM [inhibitor, single point]",–
Cc1ccc(/C=N/N=C2/NC(=O)C(CC(=O)N3CCOCC3)S2)cc1 (stereo not given),–,inactive: 2.81%
COc1ccc(CC(NC(C)=O)C(=O)NC2CCN(C(=O)c3ccccc3F)CC2)cc1 (stereo not given),–,inactive: -6.9%
O=C(c1ccco1)N1CCN(Cc2nnnn2CCc2ccccc2)CC1,–,inactive: -15.1%
CC(=O)c1ccc(NS(=O)(=O)c2cc(-c3cnc(C4CC4)o3)ccc2C)cc1,"inconclusive: 29.1 µM [inhibitor, single point] and inconclusive: 20.6 µM [inhibitor, single point]",–
O=C(N/N=C/c1ccc[nH]1)c1ccc(O)cc1,–,inactive: 6.62%
Cc1ccccc1NC(=O)c1ccc2nc(Cc3ccccc3)oc2c1,"inconclusive: 25.9 µM [inhibitor, single point]",–
COc1ccnc(CSC(N)=Nc2cccc(C(F)(F)F)c2)c1,active: 16.4 µM,–
COc1ccc([C@H]2CC(=O)C=C(/C=C/c3ccc(Cl)cc3)C2)cc1,"inconclusive: 29.1 µM [inhibitor, single point]",–
COc1ccccc1-c1cc(NC(C)=O)c2ncc(-c3ccc(S(C)(=O)=O)cc3)n2c1,"inconclusive: 29.1 µM [inhibitor, single point]",–
COc1ccc(CNC(=O)Cc2csc(Nc3nc(=S)[nH]c4ccccc34)n2)cc1,"inconclusive: 23.1 µM [inhibitor, partial curve]",–
C=Cc1ccc(Cn2c(C(=O)O)c(CNCc3cccs3)c3ccc(C)cc32)cc1,"inconclusive: 18.4 µM [inhibitor, single point]",–
Cc1ccc(Cn2c(=O)n(-c3ccccc3)c(=O)c3ccc(C(=O)NCc4ccco4)cc32)cc1,"inconclusive: 29.1 µM [inhibitor, single point] and inconclusive: 8.2 µM [inhibitor, partial curve]",–
CCOC(=O)N1CCC(NC(=O)c2cc3c(=O)n(C)c4ccccc4c3n2C)CC1,"inconclusive: 16.4 µM [inhibitor, partial curve, poor fit]",–
Cn1c(SCc2ccc(F)cc2)nc2c([nH]c3ccccc32)c1=O,"inconclusive: 1.64 µM [inhibitor, full curve]",–
Cc1noc(C)c1CSCC(=O)N(C)CC(=O)Nc1cccc(F)c1,–,inactive: -24.5%

SMILES,Potency,"activity change, negative = growth inhibition"
CCOc1ccc(NC(=O)c2cc3c(-c4ccccc4F)nn(C)c3s2)cc1,–,inactive: -9.81%
Cc1onc(-c2c(F)cccc2Cl)c1C(=O)c1ccccc1O,"inconclusive: 29.1 µM [inhibitor, single point]",–
COc1cc(NC(=O)c2ccc(CNc3c(N4CCCC4)c(=O)c3=O)cc2)cc(OC)c1OC,–,inactive: -25.3%
COc1ccc(Cl)cc1NC(=O)c1ccco1,"inconclusive: 16.4 µM [inhibitor, partial curve, poor fit]",–
Cc1c(/C=C/C(=O)c2ccc(O)cc2)cnn1C,"inconclusive: 29.1 µM [inhibitor, single point]",–
COC(=O)c1ccc(NC(=O)COc2coc(CN3CCc4ccccc43)cc2=O)cc1,–,inactive: -16.8%
COc1ccccc1CNC(=O)COc1ccc(S(=O)(=O)N2CCOCC2)cc1C,"inconclusive: 7.31 µM [inhibitor, full curve]",–
CC1=NNC(=O)C1CC(=O)N/N=C(\C)c1cccs1 (stereo not given),"inconclusive: 6.51 µM [inhibitor, single point]",–
CCOC(=O)c1nn(-c2ccccc2)c(=O)cc1OCC(=O)Nc1cc(C)ccc1OC,"inconclusive: 6.51 µM [inhibitor, single point]",–
C=CCOc1ccccc1CN1CCCCCC1,–,inactive: -12.6%
O=C(Cc1ccc(F)cc1)NCC1CCCO1 (stereo not given),–,inconclusive: -27.6% [inhibitor]
O=C(NC(=S)Nc1ccc(Cl)cn1)c1cccs1,–,inactive: 7.19%
CC(=O)c1sc(-c2ccc(F)cc2)cc1NS(=O)(=O)c1ccc(C)cc1,"inconclusive: 16.4 µM [inhibitor, single point]",–
COc1ccccc1NC(=O)N(C)C[C@@H]1OCc2ccccc2-c2c(n(C)c3ccccc23)C(=O)N([C@H](C)CO)C[C@@H]1C,active: 23.1 µM,–
CC(C)CCNC(=O)CCCC1=NS(=O)(=O)c2ccccc2N1,–,inconclusive: -20.1% [inhibitor]
CCOC(=O)c1c(C)oc2nc(C)nc(N3CCN(c4ccc(C(C)=O)cc4)CC3)c12,active: 2.91 µM,–
CCCCNC(=O)c1cc2c(=O)n3cccc(C)c3nc2n(Cc2ccncc2)c1=N,"inconclusive: 29.1 µM [inhibitor, single point]",–
COCCNc1nc(Oc2ccc(NC(C)=O)cc2)c2sc(-c3ccccc3)cc2n1,"inconclusive: 23.1 µM [inhibitor, single point]",–
COc1ccc(C2=NO[C@@H]3C(=O)N(c4ccc(C)cc4C)C(=O)[C@H]23)cc1OC,"inconclusive: 18.4 µM [inhibitor, single point]",–
CCOC1=C2[C@@H](CN(S(=O)(=O)c3ccc(C)cc3)[C@H]2c2ccc(Cl)cc2)[C@H]2C(=O)N(c3ccccc3)C(=O)[C@H]2C1,"inconclusive: 16.4 µM [inhibitor, single point]",–
OCCN(Cc1ccccc1)Cc1cccc(Cl)c1Cl,"inconclusive: 29.1 µM [inhibitor, single point]",–
Cc1oc(C(C)(C)C)cc1C(=O)NCc1ccc2c(c1)OCO2,"inconclusive: 20.6 µM [inhibitor, single point]",–
